Reference: PMC6919601, “Identification of Plasmodium dipeptidyl aminopeptidase allosteric inhibitors by high throughput screening” (PLoS ONE, 2019)
Out of some 110,000 compounds screened, about 230 (0.21%) showed an effect of 50% or more. The list shows a part of the results.

Target: DPAP1 (Plasmodium falciparum, UniProt Q8IIJ9)
Test: primary screen, percent inhibition; read by cleavage of a fluorogenic dipeptide substrate; higher = more effect of the substance
Parameters: species or system P. falciparum D10 trophozoite lysates; single well
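Further: 30 min substrate incubation versus DMSO and 10 µM JCP410 controls.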

Sequence of DPAP1 (Q8IIJ9 whole entry, looked up): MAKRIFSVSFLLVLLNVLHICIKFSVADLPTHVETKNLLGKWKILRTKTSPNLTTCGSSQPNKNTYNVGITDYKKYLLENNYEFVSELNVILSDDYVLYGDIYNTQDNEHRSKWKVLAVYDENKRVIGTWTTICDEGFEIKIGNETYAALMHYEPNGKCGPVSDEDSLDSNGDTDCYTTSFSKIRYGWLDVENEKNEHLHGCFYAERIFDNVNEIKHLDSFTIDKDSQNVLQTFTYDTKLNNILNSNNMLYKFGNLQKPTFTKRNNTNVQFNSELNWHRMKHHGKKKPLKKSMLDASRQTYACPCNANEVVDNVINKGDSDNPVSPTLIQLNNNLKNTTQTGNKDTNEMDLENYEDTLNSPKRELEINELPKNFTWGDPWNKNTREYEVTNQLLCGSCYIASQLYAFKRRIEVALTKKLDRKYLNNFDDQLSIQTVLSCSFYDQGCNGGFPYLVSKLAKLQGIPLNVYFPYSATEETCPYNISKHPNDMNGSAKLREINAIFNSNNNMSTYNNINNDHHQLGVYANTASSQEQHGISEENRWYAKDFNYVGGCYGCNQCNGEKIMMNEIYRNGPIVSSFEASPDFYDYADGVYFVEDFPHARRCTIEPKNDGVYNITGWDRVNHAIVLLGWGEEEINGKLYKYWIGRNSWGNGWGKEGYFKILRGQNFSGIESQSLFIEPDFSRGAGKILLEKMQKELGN

| SMILES | % Inhibition @ 10 uM [%] |
| --- | --- |
| CN1C(=O)C(=Cc2ccc(-c3ccc(C(=O)O)c(O)c3)o2)C(=O)N(C)C1=O | 24.2 |
| O=C(Cc1cccc2ccccc12)Nc1nc2ccc(Br)cc2s1 | -6.91 |
| O=C(Cn1ncc2c3ccccc3nc-2c1O)N(CCCN1CCOCC1)Cc1ccco1 | -4.27 |
| CCN1CCN(C(=O)C(C)n2nc(C)c3sc4ccccc4c3c2=O)CC1 (centres unmarked) | -3.1 |
| CC(C)(C)c1ccc(OCC(=O)Nc2ccncc2)c(Br)c1 | 0.214 |
| Fc1cccc(Cl)c1CN1CCN(c2ccc(Cl)cc2)CC1 | -5.11 |
| CCC(C)N(CCNC(=O)CS(=O)(=O)Cc1nc(-c2ccc(C)cc2)oc1C)C1CCCCC1 (centres unmarked) | -1.89 |
| COc1cccc(CNCc2ccccc2Br)c1OC | 1.92 |
| Cc1ccc(N2CCCn3c2cc(C)c(C#N)c3=O)cc1Cl | -1.38 |
| Cc1ccc(CNC(=O)c2cccc3c2SCCC3=O)cc1 | -4.42 |
| O=C(Cc1ccc(Cl)cc1)Nc1ccc2c(c1)C(=O)N(CC1CCCO1)C2=O (centres unmarked) | 3.86 |
| Cc1cccc(NC(=O)CCCOc2ccc(Cl)cc2Cl)n1 | -1.03 |
| O=C1CC(c2ccccc2Br)c2cc3c(cc2N1)OCO3 (centres unmarked) | -5.23 |
| CN1C(=O)c2ccc(C(=O)Nc3cccc(C(=O)O)c3)cc2C1=O | -5.3 |
| CC(CC1OCC(CN2CCCCC2)O1)CC(C)(C)C (centres unmarked) | 6.24 |
| Cc1ccc2c(c1)c1c(n2CC(O)CN2CCOCC2)CCCC1 (centres unmarked) | -0.994 |
| COc1ccc(C2=NOC(C(=O)NC(C)c3ccccc3)C2)cc1 (centres unmarked) | -5.25 |
| CCOc1ccc(CCNC(=O)C2CCN(S(=O)(=O)c3c(C)nn(C)c3C)CC2)cc1OCC | 4.01 |
| COc1ccc(-c2csc(-c3nc(-c4ccc(OC)c(OC)c4)cs3)n2)cc1OC | 2.79 |
| COc1ccccc1C(=O)N1CCN(Cc2cccc(Cl)c2)CC1 | 7.71 |
| CC(C(=O)N1CCN(C2CCCCC2)CC1)n1sc2ccccc2c1=O (centres unmarked) | -8.05 |
| CC1=NN(c2nc(C)cc(C)n2)C(=O)C1Cc1ccccc1 (centres unmarked) | -11.3 |
| CCOc1cc(C2C(C(=O)c3cc4ccccc4o3)=C(O)C(=O)N2CCN2CCOCC2)ccc1O (centres unmarked) | -0.28 |
| COc1ccc(C)cc1NC(=O)CC(C)C | -1.98 |
| CCOCCCNCc1c(C(=O)O)n(Cc2cc(C)ccc2C)c2ccccc12 | 0.277 |

| SMILES | % Inhibition @ 10 uM [%] |
| --- | --- |
| Cc1nc2cccnc2n1-c1ccc(CC(=O)NC2CCCCCC2)cc1 | -1.83 |
| O=C(Nc1ccc2oc(-c3ccccc3F)nc2c1)c1nc[nH]n1 | 3.72 |
| O=C(NCC1CCCO1)C1CCC(CNS(=O)(=O)c2cccc3cccnc23)CC1 (centres unmarked) | -2.42 |
| CCCCn1/c(=N\C(=O)c2ccc3c(c2)OCO3)c(C(=O)OCC)cc2c(=O)n3ccccc3nc21 | 1.26 |
| N#CC1=C(N)Oc2cc(O)ccc2C1c1cccc2ccccc12 (centres unmarked) | -2.8 |
| COc1ccc(C)cc1N(CC(=O)Nc1cc(C)cc(C)c1)S(C)(=O)=O | -4.13 |
| Cc1sc2nc(-c3cccnc3)nc(O)c2c1C | -5.92 |
| Cc1cccc(NC(=O)C(O)C(O)C(=O)Nc2cccc(C)c2)c1 (centres unmarked) | 7.35 |
| CCCN1C(=O)c2[nH]nc(-c3ccc(F)cc3)c2C1c1ccc(O)c(OC)c1 (centres unmarked) | -1.07 |
| CC1CN(C(C)Cc2ccc(F)cc2)CC(C)O1 (centres unmarked) | -3.5 |
| COCCNC(=O)c1oc2ccc3c(c2c1C)C(O)CC(C)(C)O3 (centres unmarked) | 3.14 |
| CC[C@H](C)[C@@H](CS(=O)(=O)N[C@@H](CCc1ccccc1)C(=O)c1nc2ccccc2o1)NC(=O)OCc1ccccc1 | -2.03 |
| CCOc1ccc(NC(=O)CN(c2ccc(C)c(Cl)c2)S(C)(=O)=O)cc1 | -0.185 |
| COc1ccc(CN2CCN(Cc3ccccc3C(F)(F)F)CC2)c(OC)c1OC | 1.78 |
| O=C1c2ccc(Br)cc2C(=O)N1C1c2ccccc2Oc2ccccc21 | 18.3 |
| NC(=O)c1c(-c2ccc(Cl)cc2)csc1NC(=O)C1CC=CCC1C(=O)O (centres unmarked) | -3.58 |
| c1cc2c(cc1CCNC1C3CC4CC(C3)CC1C4)OCO2 (centres unmarked) | 1.28 |
| Cc1cc(C)c2c(=O)n(CC(=O)NC3CCCC(C)C3C)sc2n1 (centres unmarked) | 12 |
| CCN1CCN(C(=O)C2CC(c3ccc(OC)cc3)=NO2)CC1 (centres unmarked) | 1.62 |
| CC1(C)CC2=Nc3nc(SCCN4CCOCC4)nc(O)c3C(c3ccc(F)cc3)C2=C(O)C1 (centres unmarked) | -6.29 |
| Cc1[nH]nc(NCc2ccccc2)c1[N+](=O)[O-] | 0.716 |
| O=C1CCCC2=C1C(c1ccc(Cl)cc1)N1C(=O)CCSC1=N2 (centres unmarked) | -6.07 |
| Cc1ccc(S(=O)(=O)c2nc(-c3ccco3)oc2N2CCC(C)CC2)cc1 | 3.36 |
| Cc1c(C(=O)NCCN2CCOCC2)sc2nc(-c3ccc(F)cc3)cn12 | -3.7 |
| O=C(NCc1ccccc1)c1ccccc1C(=O)N1CCCCC1 | 11.3 |

| SMILES | % Inhibition @ 10 uM [%] |
| --- | --- |
| c1ccc(Cn2ncc3c2ncn2nc(-c4ccncc4)nc32)cc1 | 2.17 |
| COc1ccc(-c2cc(C(=O)NCC(C)C)no2)cc1OC | -0.591 |
| O=C(O)c1cc(C(=O)O)cc(C23CC4CC(CC(C4)C2)C3)c1 | 2.44 |
| CCCC(=O)O/N=C(\c1ccccc1)c1ccncc1 | -4.74 |
| Cc1cc(/C=N\OCc2ccccc2)c(C)n1-c1ccc(F)cc1 | 1.13 |
| COc1ccc(C2C(C#N)=C(N)N(c3cccnc3)C3=C2C(=O)CC(C)(C)C3)cc1CN1CCOCC1 (centres unmarked) | -4.65 |
| CC1(C)CC(O)=C/C(=N/CCc2c[nH]cn2)C1 | -1.69 |
| O=C(CCN1N=C(c2ccccc2)CCC1=O)NC1CCCCC1 | 3.24 |
| CCCCOc1ccc(C(=O)NCc2ccc(OC)cc2)cc1 | -2.05 |
| Cc1occc1C(=O)Nc1ccc(F)cc1F | -0.436 |
| Cc1ccc(-c2nc(CS(=O)(=O)CC(=O)NCCCSC3CCCCC3)c(C)o2)cc1 | -0.138 |
| CC1CC(C)CN(C(=O)c2nn(C)c3c2CS(=O)(=O)c2ccccc2-3)C1 (centres unmarked) | 0.0845 |
| Cc1cc(/C=C2/C(=N)N3C=CSC3=NC2=O)c(C)n1Cc1ccccc1 | 3.87 |
| O=c1c(O)c(-c2ccc3c(c2)OCO3)oc2ccccc12 | -5 |
| Clc1cccc(N2CCN(CC3CCCCC3)CC2)c1 | 2.99 |
| CS(=O)(=O)N(Cc1ccc(Cl)cc1)c1ccc(C(=O)N2CCN(c3ccccc3)CC2)cc1 | 2.79 |
| Cc1cccc(NC(=O)c2nc(-c3ccc(Cl)cc3)n3c2CCCCC3)n1 | 6.14 |
| COc1ccc2c(c1)N=C1C(CC(=O)N1CCN(C)C)S2 (centres unmarked) | 4.11 |
| O=c1cccc2n1C[C@H]1C[C@@H]2CN(Cc2ccccc2[N+](=O)[O-])C1 | 3.15 |
| CCN(CC)CCCCOc1cc(C)cc(C)c1 | 0.565 |
| Cc1ccc(Cn2nc(C)c(NC(=O)c3cc(CC(C)C)on3)c2C)cc1 | -1.84 |
| Cc1ccccc1NC(=O)CN1CC(c2ccccc2)CC1=O (centres unmarked) | -1.12 |
| CC1(C)CC(c2csc(-c3ccccc3)n2)CCO1 (centres unmarked) | -2.07 |
| COc1cc2ncc(S(=O)(=O)c3ccccc3)c(N3CCCC(C)C3)c2cc1OC (centres unmarked) | -3.67 |
| CCCCn1c(CNC(=O)c2cccc(C)c2)nc2ccccc21 | -2.49 |

| SMILES | % Inhibition @ 10 uM [%] |
| --- | --- |
| CC(=O)C1=C(O)C(=O)N(CCc2c[nH]c3ccccc23)C1c1cccc(O)c1 (centres unmarked) | 0.907 |
| Cc1nn(C)c(C)c1CN(C)C(=O)CC12CC3CC(CC(C3)C1)C2 | 1.92 |
| CC1=C(C(=O)Nc2ccc(F)cc2)C(c2cccc(Cl)c2)NC(S)=N1 (centres unmarked) | -3.63 |
| Cc1ccc2[nH]c(CCN(C)C)c(CN3CCOCC3)c2c1 | -5.31 |
| O=C1CC(c2ccccc2C(F)(F)F)C2=C(CC(c3cccs3)CC2=O)N1 (centres unmarked) | 3.67 |
| Nc1ccc(-c2nc3cc(N)ccc3s2)cc1 | -4.44 |
| Cc1ccc(N2CCN(CC(=O)Nc3ccc(Br)cc3)CC2)cc1C | -8.01 |
| CCCCN(C1CCN(C)CC1)S(=O)(=O)c1ccc(-c2cc(C(F)(F)F)no2)s1 | -2.86 |
| CCOc1ccc2c(c1)nc(SCC(=O)c1cccs1)n2C | -0.865 |
| COc1cccc(C2C(C#N)=C(N)N(c3c(F)cccc3F)C3=C2C(=O)CC(C)(C)C3)c1 (centres unmarked) | -4.76 |
| Cc1ccc(OCC(=O)Nc2cccc(NC(=O)COc3ccc(C)cc3)n2)cc1 | -4.63 |
| Cc1ccccc1S(=O)(=O)Cc1ccc(C(=O)NC(C)c2ccc3c(c2)OCCO3)o1 (centres unmarked) | -3.09 |
| Cc1ccc(-c2cc(C(F)(F)F)n3ncc(C(=O)O)c3n2)cc1 | 2.13 |
| O=C(c1ccco1)N1CCN(c2ccc(F)cc2)CC1 | 3 |
| CCn1c(-c2nonc2NC(=O)c2ccccc2Cl)nc2ccccc21 | -15.2 |
| CCOc1ccc2nc(NC(=O)c3cnn(-c4ccccc4)c3-n3cccc3)sc2c1 | 0.137 |
| CCC(C)C(C(=O)Nc1nc(-c2ccc(Br)cc2)cs1)N1C(=O)c2ccccc2C1=O (centres unmarked) | 2.38 |
| O=S(=O)(/C=C/c1ccccc1)NCc1ccc2c(c1)OCO2 | 7.2 |
| Cc1ccc(OCC(=O)Nc2ccc(Nc3ccccc3)cc2)cc1 | -2.67 |
| Cc1ccc(NS(=O)(=O)c2ccc(NC(=O)c3ccc(N(C)S(C)(=O)=O)cc3)cc2)cc1 | 0.709 |
| COc1ccc(C=O)cc1CSc1nc2ccccc2s1 | 21.6 |
| COC(=O)C1=C(C)NC(=O)CC1c1ccc2ccccc2c1 (centres unmarked) | -1.54 |
| O=C(c1ccc(F)cc1)N1CCCCC(S(=O)(=O)c2ccccc2)C1=O (centres unmarked) | 2.22 |
